# Laboratory results taken from the supplement of paper PMC3334620.
# The full ranking holds about 33,000 sequences; the median of “E-score (-0.5 to 0.5)” is about -0.041, and the highest 2% start at about 0.37. The list shows a part of the results.
# Biological target: T1, Ecm22 (UniProt Q05958)
# T1 sequence: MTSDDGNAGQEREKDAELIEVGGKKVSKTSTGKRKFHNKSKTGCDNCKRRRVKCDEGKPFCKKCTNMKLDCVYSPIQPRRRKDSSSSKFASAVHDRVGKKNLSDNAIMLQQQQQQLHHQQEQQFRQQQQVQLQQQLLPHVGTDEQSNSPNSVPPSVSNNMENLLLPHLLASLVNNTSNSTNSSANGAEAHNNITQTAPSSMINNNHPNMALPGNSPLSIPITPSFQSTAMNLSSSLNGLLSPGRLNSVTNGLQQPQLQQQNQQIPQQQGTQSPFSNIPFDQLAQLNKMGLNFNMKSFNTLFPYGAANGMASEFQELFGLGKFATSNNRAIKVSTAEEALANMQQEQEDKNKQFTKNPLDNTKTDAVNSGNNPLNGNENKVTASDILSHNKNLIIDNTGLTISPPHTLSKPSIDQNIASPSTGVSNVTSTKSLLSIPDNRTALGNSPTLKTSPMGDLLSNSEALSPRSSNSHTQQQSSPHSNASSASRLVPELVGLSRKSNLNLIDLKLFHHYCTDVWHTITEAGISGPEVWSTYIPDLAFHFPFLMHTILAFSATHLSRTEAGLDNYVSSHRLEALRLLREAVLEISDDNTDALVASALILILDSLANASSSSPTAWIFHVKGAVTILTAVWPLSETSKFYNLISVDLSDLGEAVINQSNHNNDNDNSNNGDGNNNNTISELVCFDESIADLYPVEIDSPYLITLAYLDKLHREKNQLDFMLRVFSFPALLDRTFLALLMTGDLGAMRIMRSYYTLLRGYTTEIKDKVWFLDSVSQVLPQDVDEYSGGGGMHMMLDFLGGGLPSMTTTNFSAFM
# Experiment: PBM E-score (8-mer binding enrichment) (E-score (-0.5 to 0.5)); higher = stronger / more preferred TF binding; most listed sequences are background and not binding sites
# Conditions: protein concentration: 200 nM; construct: GST-full length
# Outline: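 The E-score, a modified Wilcoxon-Mann-Whitney statistic, was computed by the Universal PBM Analysis Suite for every ungapped eight-base word pooled with its reverse complement. Scans behind it were normalised with masliner after bound GST-tagged yeast transcription factors were detected with fluorescent anti-GST. The proteins, at about 100-200 nM, had been applied to universal all-10-mer Agilent arrays made double-stranded by primer extension.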
row,Sequence,PBM E-score
1,ATAATCAA,0.00669
2,ATTTGACA,0.0215
3,CCATCCGA,0.0205
4,CGGCGGAG,-0.0217
5,AGAGTGCC,-0.319
6,GCAATTTA,0.154
7,CTAAGGGC,-0.333
8,CAGCGCAC,-0.186
9,ATTGCCGG,-0.0664
10,AGGCTCGG,0.0899
11,ACTTTACA,-0.00715
12,TATTGGAA,-0.127
13,CGCTCTAC,0.208
14,CGGATAAA,0.352
15,CCCGACTA,0.0177
16,GCAGGGGC,-0.243
17,AGAAACCG,0.165
18,GTCTGATA,-0.126
19,CCTATTAC,0.00756
20,CGCGATCA,0.179
21,CTCTCCAC,-0.309
22,AATCCAAC,-0.124
23,GCGAATGA,0.225
24,ACGTTTCT,0.094
25,AGGTGGTA,-0.121

row,Sequence,PBM E-score
1,ACGACCCT,0.331
2,CACCTCTG,-0.306
3,CGCTTATA,0.281
4,CGACGAAC,0.177
5,ACTTTCTG,-0.18
6,CGTCTTTC,0.0987
7,AAGCAAAG,-0.212
8,CTGTGTCA,-0.223
9,AGATGCCC,-0.0621
10,GCAGTAGA,-0.0847
11,CACTCCAC,5e-05
12,AGACTCCT,-0.339
13,CGCCGGCC,-0.243
14,ACGCTTCG,0.262
15,TCACGAAA,-0.00573
16,ATCTAGGC,-0.217
17,ACCGCGGC,0.08
18,CAACCTGC,-0.0911
19,ACTACCGC,-0.164
20,AAGGCTCG,0.176
21,CCCTTCGG,0.0505
22,AGACTCCC,-0.275
23,TGCCTCAA,-0.187
24,GCTCGCCA,0.0906
25,GCCGCAGA,0.0154

row,Sequence,PBM E-score
1,CATTTCAG,-0.0766
2,ACTGGTAA,0.0597
3,GCTCCCAA,-0.0944
4,AAACGTGA,0.119
5,AGCAGTTG,-0.138
6,AATGCTTG,-0.129
7,GTCCGCCA,-0.142
8,TTGCTAAA,-0.0905
9,GCAGATGC,0.0087
10,CACAGGCG,-0.195
11,AAGCCAAT,-0.0127
12,TAACAAAA,-0.0453
13,GGCCACAC,-0.261
14,TCGTTGCA,0.356
15,ACATTGTA,0.182
16,CTCGATTA,0.233
17,CGGGCGTC,0.0339
18,CGGAGAGC,-0.0728
19,ATATGGCC,-0.145
20,GAAAACTA,0.0964
21,AGCTAAAT,0.0485
22,AGAGTTGC,-0.115
23,ACGTGGCT,-0.0377
24,GGAAACAC,0.0703
25,GCAAGGCA,-0.0754

row,Sequence,PBM E-score
1,AACACACG,-0.149
2,TGCACCAA,-0.177
3,AACGTTGA,0.0505
4,CATACACC,-0.059
5,TATGTTCA,-0.0522
6,AGGCTGCC,-0.137
7,CAAGGGTA,-0.0852
8,ATTGCCTC,-0.0779
9,CGATTGTA,0.147
10,AACCAAGG,0.0371
11,GCCTCAAA,-0.0302
12,AAAGGCGT,-0.175
13,CTGCAGGC,-0.263
14,CTATGCCA,-0.308
15,GCTAAACA,-0.0273
16,GGTTATAA,-0.139
17,CAACCACG,-0.0139
18,CGAGGATA,0.23
19,ATCGTGGA,-0.0151
20,AAGCCTAT,-0.106
21,GAAGCGAC,0.217
22,AGCCTTCG,0.0593
23,CATGCTCA,-0.229
24,CATGCCTC,-0.0782
25,CAGGCAGA,-0.091

row,Sequence,PBM E-score
1,GTAGCTAA,0.0391
2,CTAGCGGC,-0.29
3,AACTGGTC,-0.0118
4,AGTAGGCC,0.00266
5,GCCGCGTA,0.213
6,AGAGGGTG,-0.165
7,ACCAGCTA,-0.0229
8,ATGCGCAA,0.0145
9,ATTATCCC,0.0399
10,CGTGAAAG,0.0141
11,ACTGCCCA,-0.0198
12,CTAAGTGC,-0.102
13,CCATAGGG,-0.234
14,AGTCGTCG,0.01
15,GTCTGCGA,-0.0165
16,AGATGATC,0.122
17,CGTCATTC,0.0928
18,TGCAAGCA,-0.215
19,GAACGTTC,0.277
20,ATTGCCAC,-0.126
21,AGCGATTA,0.0926
22,GAGCGTAC,0.208
23,AGCCGAAG,-0.0638
24,CCGTGGCC,-0.235
25,CAGGACCA,-0.27

row,Sequence,PBM E-score
1,ATCCATGA,-0.237
2,CTGAAAAG,-0.0321
3,CTGAGCAA,-0.0639
4,CCTTGCAC,0.0147
5,AGGCTCCC,-0.294
6,CAGATCTC,-0.09
7,AACCAAAC,0.062
8,AGCACACC,-0.231
9,ACCAAAAA,-0.105
10,ATTTAGGC,-0.223
11,GACGTCTC,0.164
12,GAGTGAAA,-0.0908
13,ATCTAGGG,-0.0589
14,TCCAACCA,-0.229
15,ATCGTGCC,0.0276
16,GGTTAAAC,0.116
17,CGTAGTTC,0.164
18,ATTTGGGC,-0.13
19,GCCGAGGC,0.0887
20,GCAAACCA,0.047
21,CTTAAGGC,-0.0987
22,ATCGCTTC,0.12
23,AGCGAGAT,0.355
24,CGAGCACG,0.194
25,ATCCTAGG,-0.178

row,Sequence,PBM E-score
1,CCTACAGA,-0.162
2,ACCCCGGT,0.00636
3,CTGGAGCC,-0.305
4,AATGGGGT,-0.0994
5,GTTTGAGA,0.111
6,CAGTACCG,-0.0654
7,TAAGCAAA,0.136
8,GCAACGGA,0.226
9,GAAAAATC,0.191
10,CTGTCTAC,-0.147
11,GACGTTTA,0.303
12,AGGATGTA,0.12
13,ACTGGCCG,-0.111
14,ATAGAAGC,-0.00506
15,CGTAGAAC,0.268
16,AACTCACC,-0.105
17,ACAATCTC,0.0197
18,AGCGGTAG,0.0145
19,CAGGGGGC,-0.107
20,GCCCGCGA,0.083
21,GTCCTGGA,-0.225
22,ACCTGTAT,-0.0452
